# According to PubChem BioAssay AID485294 (National Center for Advancing Translational Sciences (NCATS), 2010):
# Screen size: about 370,000 compounds; about 150 (0.041%) were called active. The inconclusive results got no clear call from the source; some entries with a clear call stand among them for comparison. Calls follow the shape of the dose curve; as a rule, active = well fitted inhibition curve with a large enough effect; inconclusive = small, poorly fitted or top-dose-only effect; inactive = flat fitted curve, though single readings scatter. No potency is given beside an inconclusive call; the fits are too rough.
# Target: Beta-lactamase (Escherichia coli (strain K12)) (UniProt P00811)
# UniProt P00811, sequence (P00811 whole entry, looked up): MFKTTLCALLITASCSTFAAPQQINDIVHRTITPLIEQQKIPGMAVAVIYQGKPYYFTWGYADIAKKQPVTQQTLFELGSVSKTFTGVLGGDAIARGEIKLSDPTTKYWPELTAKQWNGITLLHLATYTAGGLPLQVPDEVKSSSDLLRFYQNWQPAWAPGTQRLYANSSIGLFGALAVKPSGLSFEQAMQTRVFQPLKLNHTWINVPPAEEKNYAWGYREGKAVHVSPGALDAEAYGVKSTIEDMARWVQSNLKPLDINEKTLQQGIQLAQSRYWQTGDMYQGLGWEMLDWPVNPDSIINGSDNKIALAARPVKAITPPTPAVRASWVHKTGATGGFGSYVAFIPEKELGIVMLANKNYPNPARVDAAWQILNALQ
# Assay: qHTS Inhibitors of AmpC Beta-Lactamase (assay with detergent); also: nearly all actives have a fitted effect of over 25% in size;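 as to activity change, negative = inhibition: 0% = no-compound wells and -100% = no-enzyme wells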
# Settings: AmpC hydrolysis of nitrocefin, absorbance 480 nm, 0.01% Triton; activity change, negative = inhibition: at 114 µM (top of the series)
# Method in brief: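 AmpC (5.3 nM in the dispensed reagent) in 20 mM phosphate pH 7.0 with 0.01% (detergent screen) or 0.0001% Triton X-100 was preincubated with compounds for 15 min at room temperature. Nitrocefin was then added from an 800 uM solution, and hydrolysis was followed at 480 nm.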
# Potency is read from the fitted curve at half-maximal effect; tags tell the direction and shape of the fitted curve.
Compound,Potency,"activity change, negative = inhibition"
N#Cc1ccc(CSCC(=O)NN=C2CCCC2)cc1,"inconclusive [inhibitor, single point]",
CN(C)c1cccc(C(=O)OCC(=O)c2ccc[nH]2)c1,"inconclusive [inhibitor, partial curve, poor fit]",
Cc1ccc(CCNc2nc3c(S(=O)(=O)c4ccccc4)nnn3c3ccsc23)cc1,,inactive: -2.83%
COCC(C)n1c(C)cc(C(=O)CSc2ncccn2)c1C (stereo unspecified),"inconclusive [inhibitor, single point]",
O=C(NCCc1ccccc1)C(NS(=O)(=O)c1cccc2nsnc12)c1ccccc1 (stereo unspecified),"inconclusive [inhibitor, full curve, poor fit]",
CCOc1ccc(C(=S)N2CCN(C)CC2)cc1,,inactive: -4.58%
O=C(CCl)NCC1CCCO1 (stereo unspecified),"inconclusive [inhibitor, single point]",
Cn1c(SCc2cccnc2)nc2c(c1=O)SCC2,"inconclusive [inhibitor, partial curve, poor fit]",
Nc1nc(SCc2nc(-c3ccccc3)no2)[nH]c(=O)c1-c1ccccc1,"inconclusive [inhibitor, partial curve]",
COc1ccc2nc3sc(C(=O)NCc4cccs4)c(N)c3cc2c1,"inconclusive [inhibitor, partial curve, poor fit]",
CCC(O)C1CCN(C(=O)c2cc(COc3ccc(F)cc3F)on2)CC1 (stereo unspecified),,inactive: -1.46%
CCNC(=O)NC(=O)CSc1ccccc1F,"inconclusive [inhibitor, partial curve]",
CCC1CCc2c(sc(NC(=O)c3ccoc3C)c2C(N)=O)C1 (stereo unspecified),"inconclusive [inhibitor, full curve, poor fit]",
C/C(=N/N1CCN(Cc2cccc3ccccc23)CC1)c1ccco1,,inactive: -3.9%
CCOc1ccccc1NC(=O)Nc1cc(C(=O)NCc2ccc(C)cc2)ccc1N1CCCC1,,inactive: 13.6%
Cc1cc(C(=O)NCc2cccnc2)n(-c2ccccc2)n1,"inconclusive [inhibitor, partial curve]",
Cc1ccc(NC(=O)c2cc3c(-c4ccccc4)nn(-c4ccccc4)c3s2)cc1,,inactive: -14.6%
CCS(=O)(=O)NCC(c1cccnc1)N1CCN(c2ccccc2OC)CC1 (stereo unspecified),,inactive: -7.64%
CC1CCCC(C)N1/N=C/c1c[nH]c2ccc(Br)cc12 (stereo unspecified),"inconclusive [inhibitor, single point]",
On1c(-c2ccco2)nc2c1CCc1nonc1-2,"inconclusive [inhibitor, full curve, poor fit]",
CCCCN(C(=O)C1CCN(C(=O)c2ccccc2C)CC1)c1c(N)n(CCCC)c(=O)[nH]c1=O,"inconclusive [inhibitor, single point]",
CCOC(=O)C(N)CSC1CC(=O)N(c2ccc(C(=O)OC)cc2)C1=O (stereo unspecified),"inconclusive [inhibitor, full curve, poor fit]",
COc1ccccc1N1CCN(C(c2cccs2)C(C)NC(=O)c2cccs2)CC1 (stereo unspecified),"inconclusive [inhibitor, full curve, poor fit]",
COc1ccc(Nc2nc(-c3sc(C)nc3C)cs2)cc1,"inconclusive [inhibitor, full curve, poor fit]",

Compound,Potency,"activity change, negative = inhibition"
CCC(C(=O)NC1CCCC1)N(C(=O)Cn1nnc(-c2ccc(OC)c(OC)c2)n1)C1CCCCC1 (stereo unspecified),"inconclusive [inhibitor, full curve]",
c1cc(C(c2nnnn2C2CCCCC2)N2CCN3CCCC3C2)ccn1 (stereo unspecified),"inconclusive [inhibitor, single point]",
COC(=O)CSc1nc2ccc(NC(C)=O)cc2s1,"inconclusive [inhibitor, single point]",
Cc1ccc(N2CCN(S(=O)(=O)c3cccs3)CC2C)cc1 (stereo unspecified),"inconclusive [inhibitor, full curve]",
Cc1ccc2cc3c(nc2c1)N(c1ccccc1)CC3,"inconclusive [inhibitor, full curve, poor fit]",
COc1cc2c(cc1OC)C(c1cccs1)N(C(=O)c1cccnc1)CC2 (stereo unspecified),,inactive: 2.13%
COc1ccc(N2C(=O)CCC2(C(N)=O)c2ccccc2)cc1 (stereo unspecified),"inconclusive [inhibitor, full curve, poor fit]",
Cc1ccc(N2CCN(C(=O)c3ccccc3Br)CC2)c(C)c1,"inconclusive [inhibitor, partial curve]",
CCn1c(SCc2nc3ccccc3[nH]2)nnc1-c1ccccc1OC,"inconclusive [inhibitor, full curve, poor fit]",
Cc1ccc(CC2C(=O)N(c3nc(C)cc(C)n3)C(=O)C2C)cc1 (stereo unspecified),,inactive: 3.07%
COCCN(C(=O)CCSc1ccc(F)cc1)c1c(N)n(Cc2ccccc2)c(=O)[nH]c1=O,"inconclusive [inhibitor, single point]",
COc1ccc(C(=O)C2CCCN(C3CSCCSC3)C2)c(C)c1 (stereo unspecified),"inconclusive [inhibitor, single point]",
Cc1c(NC(=O)COC(=O)Cc2ccc(Br)cc2)c(=O)n(-c2ccccc2)n1C,"inconclusive [inhibitor, full curve, poor fit]",
N#C/C(=C\c1ccc[nH]1)C(=O)Nc1ccccc1Cl,"inconclusive [inhibitor, full curve, poor fit]",
O=C1C(Cl)=C(NCCCO)C(=O)c2ccccc21,"inconclusive [inhibitor, full curve, poor fit]",
c1ccc(NCc2nc3ccccc3n2CCOc2ccccc2)cc1,,inactive: -11.1%
CCCn1c(=O)[nH]c(=O)c2c(C(=O)OCC)cc(-c3cccs3)nc21,,inactive: 3.78%
COc1ccc(CN2CCN(c3ccccc3OC)CC2)cc1OC,"inconclusive [inhibitor, partial curve, poor fit]",
Oc1ccc(-c2[nH]ncc2-c2ccc(Br)cc2)c(O)c1,"inconclusive [inhibitor, full curve, poor fit]",
CCc1ccc(NC(=S)NCc2cccnc2)cc1,,inactive: 6.5%
COc1ccc(NC(=O)CN(C)C(=O)/C=C/c2cn(-c3ccccc3)nc2-c2ccc(F)cc2)cc1,,inactive: -0.734%
COc1ccc(C(=O)NCC(=O)OCc2ccc([N+](=O)[O-])cc2)cc1,"inconclusive [inhibitor, full curve]",
Cn1cc([N+](=O)[O-])c(C(=O)NC2CCCCCCC2)n1,,inactive: 5.25%
COc1ccc(NC(=O)CN(C)C(=O)c2cccc(S(=O)(=O)N3CCN(C)CC3)c2)cc1,,inactive: -5.35%

Compound,Potency,"activity change, negative = inhibition"
CC1=C(C(=O)N2CCCCC2)C(c2cccc(Cl)c2)n2c(nc3ccccc32)N1 (stereo unspecified),,inactive: 23.6%
O=C(NCc1ccc(C(F)(F)F)cc1)C1CC(c2ccccc2[N+](=O)[O-])=NO1 (stereo unspecified),"inconclusive [inhibitor, full curve]",
Cc1ccc(-n2nnnc2SCC(=O)c2cc(C)n(-c3cc(C)on3)c2C)c(C)c1,,inactive: -12.8%
O=C(CSc1nc(-c2ccccc2)c2ccccc2n1)Nc1ccc(F)cc1,,inactive: 26%
COc1ccc(-n2c3c(c(=O)[nH]c2=O)C(NC(=O)c2ccncc2)(C(F)(F)F)C(=O)N3)cc1 (stereo unspecified),,inactive: -14.4%
COc1ccc(-c2nnc(SCC(=O)N3CCCC3)o2)c(OC)c1,,inactive: 5.9%
COc1cc2[nH]c(=O)n(CCCCCC(=O)NCCCN3CCOCC3)c(=O)c2cc1OC,"inconclusive [inhibitor, single point]",
COc1ccc(N(C)S(=O)(=O)c2cccc(C(=O)NC3CCCC(C)C3C)c2)cc1 (stereo unspecified),"inconclusive [inhibitor, full curve]",
Cn1c2c(c(=O)n(C)c1=O)C(c1ccc(Br)cc1)C(C#N)=C(N)N2 (stereo unspecified),"inconclusive [inhibitor, full curve, poor fit]",
Cc1ccc(OC(=O)c2ccc([N+](=O)[O-])cc2Cl)cn1,,inactive: 0.468%
COc1ccc(-c2c(C#N)c(SCC(=O)Nc3ccc(Br)cc3)nc(C)c2C(=O)Nc2ccccc2)cc1,,inactive: 15.8%
NC(=O)CC(NC(=O)Cc1cccc2ccccc12)c1ccc(NC2CC3CCC2C3)c([N+](=O)[O-])c1 (stereo unspecified),"inconclusive [inhibitor, full curve]",
Cc1ccccc1C(=O)NNC(=S)NC(=O)c1cccnc1,"inconclusive [inhibitor, partial curve]",
O=S(=O)(NCc1ccccn1)C(F)(F)F,"inconclusive [inhibitor, full curve, poor fit]",
CC(C)(Oc1ccc(Cl)cc1)C(=O)Nc1ccc2oc(-c3ccncc3)nc2c1,"inconclusive [inhibitor, full curve, poor fit]",
Cc1nc(N/N=C\c2ccc3c(c2)OCO3)sc1C,"inconclusive [inhibitor, full curve]",
COc1cccc(NC(=O)CCSc2ccc3ccccc3n2)c1,"inconclusive [inhibitor, partial curve]",
COc1ccc(NC(=O)C2CCC(C(C)(C)C)CC2)cc1S(=O)(=O)N1CCCCC1 (stereo unspecified),,inactive: -6.67%
CCN(CC)S(=O)(=O)c1cccc(NC(=S)NC(=O)/C=C/c2ccc(S(=O)(=O)N3CCOCC3)cc2)c1,"inconclusive [inhibitor, full curve]",
O=c1cc(CSc2nnc(Nc3ccccc3)s2)nc2sccn12,,inactive: -0.876%
Cc1sc(-n2cccc2)c(C(C)NC(=O)Nc2ccccc2Cl)c1C (stereo unspecified),,inactive: 19.5%
COc1ccc(C(=O)N2CCc3ccccc32)cc1,,inactive: -7.35%
O=C(O)CCN(CC(=O)c1ccc(Cl)cc1)S(=O)(=O)c1ccc([N+](=O)[O-])cc1,"inconclusive [inhibitor, partial curve]",
